Assay results: PubChem BioAssay AID588795 (National Center for Advancing Translational Sciences (NCATS), 2011)
The campaign covered roughly 390,000 compounds. About 1,400 (0.36%) were called active. The shares of active, inactive and inconclusive entries below differ from those in the screen. Calls follow the shape of the dose curve; as a rule, active = well fitted inhibition curve with a large enough effect; inconclusive = small, poorly fitted or top-dose-only effect; inactive = no such curve, though single readings can be large or run the other way. A potency beside an inconclusive call is a rough fit, not a confirmed value.

Biological target: Flap endonuclease 1 (Homo sapiens) (UniProt P39748)
Chain of UniProt P39748 (P39748 whole entry, looked up): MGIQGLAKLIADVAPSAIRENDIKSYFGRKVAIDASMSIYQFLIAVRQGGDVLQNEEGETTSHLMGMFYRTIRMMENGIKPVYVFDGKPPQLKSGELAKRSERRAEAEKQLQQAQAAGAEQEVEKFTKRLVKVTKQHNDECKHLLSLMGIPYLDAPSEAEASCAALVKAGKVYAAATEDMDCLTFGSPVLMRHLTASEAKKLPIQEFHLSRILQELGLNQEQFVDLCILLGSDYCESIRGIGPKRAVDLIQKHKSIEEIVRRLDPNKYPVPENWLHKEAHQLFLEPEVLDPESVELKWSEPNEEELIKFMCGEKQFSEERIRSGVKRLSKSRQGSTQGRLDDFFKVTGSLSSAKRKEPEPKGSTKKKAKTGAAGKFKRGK
Assay: qHTS Assay for the Inhibitors of Human Flap endonuclease 1 (FEN1). Also: nearly all actives have a fitted effect of over 65% in size.
Settings: Recombinant FEN1 flap cleavage, fluorescence, 15 min; series mostly up to 114 µM; activity change, negative = inhibition: at the top concentration
In short: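 FEN1 at 10 nM preincubated with compounds 15 min at room temperature, then flap DNA substrate added at 50 nM final. Signal read at 0 and 15 min; concentration-response fitted with four-parameter Hill equation.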
% is scaled to controls: 0 for no effect and ±100 for the full control effect; potency is read from the fitted curve at half-maximal effect; tags tell the direction and shape of the fitted curve.

Structure (SMILES) | Potency | activity change, negative = inhibition
CCCc1ccc(Oc2c(-c3ccc(O)c(C)c3O)n[nH]c2C)cc1 | inconclusive: 79.4 µM [inhibitor, partial curve, poor fit] | –
Cc1cccc(C(=O)NC(=S)NNC(=O)c2ccc(Cl)cc2)c1 | – | inactive: 2.56%
COc1ccccc1N1CCN(Cc2ccc(-c3ccccc3[N+](=O)[O-])o2)CC1 | inconclusive: 39.8 µM [inhibitor, single point] | –
COc1cc2c(cc1OC)/C(=C/C(=O)c1ccccc1)NCC2 | inconclusive: 50.1 µM [inhibitor, partial curve, poor fit] | –
Cc1cc(C)n(-c2cccc(CN(C)Cc3nc(-c4cnccn4)no3)c2)n1 | – | inactive: -4.8%
Cc1cc[n+](-c2[nH]c(=O)sc2/C=N/N=C(\[O-])c2ccncc2)cc1C | inconclusive: 89.1 µM [inhibitor, partial curve, poor fit] | –
Cc1ccc(/C=c2\sc3nc(-c4ccco4)nn3c2=O)o1 | inconclusive: 89.1 µM [inhibitor, single point] | –
Cc1ccc2nc(/C(C#N)=C/c3ccc(-c4ccccc4C(=O)O)o3)[nH]c2c1 | inconclusive: 28.2 µM [inhibitor, full curve] | –
COc1ccc(NC(=O)Cn2c(=O)nc(-c3ccccc3)c3ccccc32)cc1OC | – | inactive: -4.94%
CCc1ccc(OCC(=O)NNC(=S)NC(=O)C2CC2)c(Br)c1 | – | inactive: -10.2%
Cc1ccc(C)c(-n2sc3ccc(F)cc3c2=O)c1 | inconclusive: 89.1 µM [inhibitor, single point] | –
Cc1cc(/C=C2\SC(=O)N(C)C2=O)c(C)n1-c1ccc(O)cc1 | inconclusive: 15.8 µM [inhibitor, full curve] | –
CS(=O)(=O)c1ccccc1-c1csc(N2CCC(C(N)=O)CC2)n1 | inconclusive: 79.4 µM [inhibitor, partial curve, poor fit] | –
NC(=O)c1c(NC(=O)c2noc3c2CCCC3)sc2c1CCCC2 | inconclusive: 89.1 µM [inhibitor, single point] | –
O=C(Nc1ccccc1)c1ccc2nc(-c3ccco3)c(-c3ccco3)nc2c1 | inconclusive: 11.2 µM [inhibitor, full curve] | –
Cc1ccc(OCc2nnc(NC(=O)c3ccco3)s2)cc1 | – | inactive: -1.39%
Cc1ccc(Sc2c(O)c3ccccc3n(C)c2=O)cc1 | inconclusive: 70.8 µM [inhibitor, single point] | –
CCOC(=O)/C(C#N)=C\c1ccc(N2CCN(C/C=C/c3ccccc3)CC2)cc1 | inconclusive: 39.8 µM [inhibitor, partial curve] | –
CCCCCCSc1ccc([C@H]2N[C@@](C)(C(=O)OC)[C@H]3C(=O)N(CC)C(=O)[C@@H]23)cc1 | inconclusive: 89.1 µM [inhibitor, partial curve, poor fit] | –
O=C(NNc1cc(Br)c(O)c(Br)c1)c1ccccc1 | inconclusive: 79.4 µM [inhibitor, partial curve, poor fit] | –

Structure (SMILES) | Potency | activity change, negative = inhibition
Cc1nc2cc(-c3ccsc3-n3c(C)ccc3C)[nH]n2c(=O)c1Cl | inconclusive: 89.1 µM [inhibitor, partial curve] | –
CCN1CCN(c2c(C=O)c(Cl)nc3ccc(OC)cc23)CC1 | inconclusive: 44.7 µM [inhibitor, partial curve, poor fit] | –
COc1ccc(-c2cc3nc(C)c(CCC(=O)Nc4ccccc4C(C)=O)c(C)n3n2)c(OC)c1 | – | inactive: -4.54%
CCC(C(=O)Nc1cc(OC)cc(OC)c1)n1nc(-c2ccc(C)c(C)c2)ccc1=O (stereo not given) | inconclusive: 28.2 µM [inhibitor, partial curve, poor fit] | –
CCOc1ccc(Nc2ncnc3ccc([N+](=O)[O-])cc23)cc1 | – | inactive: -14.2%
CSc1ccc(CN(C)CC(=O)Nc2cccc(Br)c2)cc1 | inconclusive: 89.1 µM [inhibitor, partial curve, poor fit] | –
O=C1NC(Nc2nc3ccccc3s2)(C(F)(F)F)C(=O)N1C1CCCCC1 (stereo not given) | inconclusive: 89.1 µM [inhibitor, partial curve, poor fit] | –
CCC(C)Sc1cc(-c2nc3ccc(C)cn3c2NCc2ccccc2)ccc1OC (stereo not given) | inconclusive: 14.1 µM [inhibitor, partial curve, poor fit] | –
COc1cccc(/C=C/c2ccc3ccccc3[n+]2C)c1OC | inconclusive: 56.2 µM [inhibitor, partial curve] | –
Cc1ccc(N2C(=O)c3ccccc3C2C(=O)c2ccc(O)cc2O)cc1 (stereo not given) | active: 39.8 µM | –
CCOP(=O)(c1ccccc1)c1nc(-c2ccccc2C)oc1N1CCCCC1 (stereo not given) | inconclusive: 56.2 µM [inhibitor, partial curve, poor fit] | –
O=c1cc(-c2ccc(O)c(-c3c(O)cc(O)c4c(=O)cc(-c5ccc(O)cc5)oc34)c2)oc2cc(O)cc(O)c12 | active: 44.7 µM | –
COc1ccc(NC(=O)C2=C(C)Nc3nc(SCc4ccccc4C)nn3C2c2cc(OC)c(O)c(OC)c2)cc1 (stereo not given) | – | inactive: -10.8%
CCOc1ccc(NC(=O)C(Cc2ccccc2)N2C(=O)c3cccc4cccc(c34)C2=O)cc1 (stereo not given) | inconclusive: 89.1 µM [inhibitor, partial curve, poor fit] | –
Nc1ccc2c(c1)-c1ccccc1S(=O)(=O)N2 | inconclusive: 89.1 µM [inhibitor, single point] | –
CCOC(=O)c1cc(CC)sc1NC(=O)c1ccc2c(c1)OCCO2 | inconclusive: 89.1 µM [inhibitor, partial curve, poor fit] | –
COc1ccc(OC)c(-c2csc(NC(=O)Cc3ccccc3)n2)c1 | inconclusive: 89.1 µM [inhibitor, partial curve, poor fit] | –
O=C(CC(SCc1ccco1)c1ccc(O)cc1)c1cccs1 (stereo not given) | inconclusive: 89.1 µM [inhibitor, partial curve, poor fit] | –
CC(NC(=O)CCCn1c(=O)c2cccn2c2cccnc21)c1ccccc1 (stereo not given) | – | inactive: 0.932%
CCN(C(=O)CSc1nc2ccccc2n1Cc1cc(C)ccc1C)c1ccccc1 | inconclusive: 35.5 µM [inhibitor, partial curve, poor fit] | –
